We go through 98 compounds from PubChem BioAssay AID485344 (National Center for Advancing Translational Sciences (NCATS), 2010).

The term inhibition denotes the change of the read-out against control, counted positive when it falls.

“And” between values parts separate entries of the source, which are not always exact repeats. Equal entries are not always repeated. Screen size: about 340,000 compounds; about 6,900 (2%) were called active. Rule as the data show it: active = inhibition above about 30%; inactive = below that, where a call was filed. This is a selection; strong and weak results do not stand in their true shares. Entries without a call were filed so in the source.

In this experiment the target is D(2) dopamine receptor (Homo sapiens) (UniProt P14416). Description: HTS Assay for Allosteric Antagonists of the Human D2 Dopamine Receptor: Primary Screen for Antagonists. Also: 0% is about no effect. To be noted: HEK293 TREx D2 cells, calcium flux, dopamine EC80; at 10 µM; stronger effect = higher value. The method in brief: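 Calcium flux kinetic readout in an inducible HEK293 TREx D2 line plated overnight at 30 C. After 180 s compound exposure, an EC80 dopamine challenge follows with another 180 s kinetic read to detect antagonism.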
UniProt P14416, sequence (P14416 whole entry, looked up): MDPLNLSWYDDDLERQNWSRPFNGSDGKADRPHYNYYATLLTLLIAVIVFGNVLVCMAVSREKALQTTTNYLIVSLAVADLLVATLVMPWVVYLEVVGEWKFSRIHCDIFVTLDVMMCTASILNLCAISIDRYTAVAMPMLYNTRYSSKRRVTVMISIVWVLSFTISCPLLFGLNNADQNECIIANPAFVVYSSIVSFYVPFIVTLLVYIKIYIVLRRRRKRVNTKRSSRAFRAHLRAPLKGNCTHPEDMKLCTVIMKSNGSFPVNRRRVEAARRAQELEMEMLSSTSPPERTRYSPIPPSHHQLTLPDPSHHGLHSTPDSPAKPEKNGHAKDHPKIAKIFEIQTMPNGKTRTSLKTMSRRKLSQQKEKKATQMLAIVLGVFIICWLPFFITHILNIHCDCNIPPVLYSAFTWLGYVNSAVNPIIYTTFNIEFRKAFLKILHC
A general note: Calcium assays in cells follow changes in intracellular calcium, usually with a dye or a luminescent sensor.
On to `CCOc1ccc(-c2cc3c(=O)n(CC(=O)NCc4ccccc4)ccn3n2)cc1`, for which the inhibition was -2.65%.
With `COc1ccccc1CNc1ncnc2c1nc1n2CCCC1` the figure was -0.661%.
The figure for `Oc1cc2c(cc1CN1CCN(c3ncccn3)CC1)OCO2` is active: 83.4%.
The figure for `Cc1ccc(Cl)cc1NC(=O)c1cc(S(=O)(=O)N2CCOCC2)cn1C` is 12.1%.
As to `COc1ccccc1CNS(=O)(=O)c1c(C)nc2sc(C)cn2c1=O`, the inhibition is -7.68%.
With `Cc1cc(NC(=O)c2cc(-c3ccc(F)cc3)on2)nn1Cc1ccc(Cl)cc1` the figure was 5.15%; with `O=C(O)c1ccc2c(c1)N(Cc1ccc(F)cc1)C(=O)c1ccccc1S2=O` (stereo not drawn), -18.7%; with `Cc1ccc2c(CC(=O)Nc3ccc(S(=O)(=O)N4CCCC(C)C4)cc3)coc2c1` (stereo not drawn), -10.5%.
For the compound `O=C(NCCc1ccccc1)c1ccc2c(c1)CCN2S(=O)(=O)c1ccc(Cl)cc1`, the inhibition is -17.5%.
`CC1CCN(S(=O)(=O)c2ccc3c(c2)N(CC(=O)NCCN(C)C)C(=O)CS3)CC1`: the inhibition was -10.2%.
The figure for `COC(=O)c1cc(NC(=O)Cn2ncc3c([nH]c4ccccc43)c2=O)cc(C(=O)OC)c1` is 6.94%; for `O=C(Cn1c(=O)c2cccn2c2ccc(F)cc21)Nc1cccc(F)c1` it is 4.19%.
With `CCCCN(C)C(=O)C1CCC(Cn2c(=O)[nH]c3ccsc3c2=O)CC1` (stereo not drawn) the figure was 5.62%.
The figure for `COCCNC(=O)CCCn1c(SCc2ccccc2C)nc2c(sc3ccccc32)c1=O` is 3.3%.
`CC(=O)N1CCc2cc(C(=O)CN3CCN(c4ccccn4)CC3)ccc21`: the inhibition was active: 93.4%.
The figure for `CCn1cc(/C=C(\NC(=O)c2ccccc2Cl)C(=O)NCCCn2ccnc2)c2ccccc21` is -5%; for `Cc1ccc(C2N3CC4(C)CN2CC(c2ccccc2)(C3)C4=O)cc1` (stereo not drawn) it is 17.9%; for `CCOCCCNC(=O)C(c1ccc(Cl)cc1)N(Cc1ccc2c(c1)OCO2)C(=O)c1ccc(NC(C)=O)cc1` (stereo not drawn) it is -4.91%.
In the case of `Cc1ccc(CNC(=O)c2ccc(N3Cc4ccccc4Oc4ncccc43)s2)cc1`, the inhibition stood at 11.4%.
With `CCOc1ccc(C(=O)Nc2ccc(C(=O)OCc3cc(=O)n4c(C)csc4n3)cc2)cc1` the figure was -10%; with `CCC(=O)Nc1ccc(-c2nc3ncccc3o2)cc1C`, -3.9%.
The figure for `Oc1c(C(c2ccc(Cl)cc2Cl)N2CCN(Cc3ccccc3)CC2)sc2nc(-c3ccco3)nn12` (stereo not drawn) is -17.1%; for `CCOC(=O)N1CCN(C(=O)C2CCN(S(=O)(=O)c3cc(C)ccc3OC)CC2)CC1` it is active: 33.4%; for `CC(=O)c1cccc(NC(=O)c2cc3sc(Cl)cc3n2C)c1` it is -2.21%.
As to `Cc1ccc(CNC(=O)Cn2ccn(-c3ccc(F)c(F)c3)c(=O)c2=O)cc1`, the inhibition was -0.46%.
With `CCC(Sc1nc2ccncc2[nH]1)C(=O)Nc1cc(C)ccc1C` (stereo not drawn) the figure was -11.1%; with `CCC(=O)N1CCc2cc(S(=O)(=O)NCCC(=O)Nc3ccc(C)cc3C)ccc21`, 2.88%; with `CC1CCc2noc(NC(=O)c3ccc([N+](=O)[O-])cc3)c2C1` (stereo not drawn), -5.53%.
The figure for `Cc1ccc(NC(=O)CN2C(=O)c3ccccc3Sc3ccc(C(=O)N4CCOCC4)cc32)cc1C` is 7.49%; for `COc1ccc(N(CC(=O)NCCSCc2ccc(C)cc2)S(=O)(=O)c2ccccc2)cc1` it is active: 30.8%.
The figure for `COc1ccccc1OCCNCC(O)COc1cccc2[nH]c3ccccc3c12` (stereo not drawn) is active: 59.1% and active: 51.5%; for `O=C1Nc2ccccc2C1Cc1ccc(Br)cc1` (stereo not drawn) it is -1.93%; for `Cc1ccc(NC(=O)CSc2nc3nccnc3c(=O)n2CCc2c[nH]c3ccccc23)cc1C` it is 23.4%.
For `Oc1ccccc1Cn1c(-c2ccccc2O)nc2ccccc21`, the inhibition was active: 33.6%.
The figure for `Cc1ccccc1OCCSc1nc2ccc(NC(=O)c3ccco3)cc2s1` is 9.27%.
With `COC(=O)c1ccccc1NC(=O)Cn1c(=O)n(-c2ccc(C)cc2)c(=O)c2ccccc21` the figure was 5.43%.
For the compound `CCOc1ccc(NC(=O)Cn2nc(CC)n3c(cc4sccc43)c2=O)cc1`, the inhibition was -5.63%.
The figure for `COc1cc(Nc2nc3c(S(=O)(=O)c4cccc(Cl)c4)nnn3c3ccsc23)cc(OC)c1` is -3.47%; for `COc1ccc(OCC(=O)Nc2cc(-c3nc4ccccc4o3)ccc2Cl)cc1` it is 4.55%; for `COc1cccc(CNC(=O)c2ccc3nc(CCc4ccccc4)oc3c2)c1OC` it is -7.75%.
Take `CCc1cccc(C)c1Nc1c(-c2ccc(N(C)C)cc2)nc2cnccn12`: the inhibition is -8.91%.
As to `Cc1ccc(-n2nc(C)c3c(C)c(CCC(=O)NCc4ccc(Cl)cc4)c(C)nc32)cc1`, the inhibition was determined as 1.81%.
In the case of `CCCOc1ccc(CN2C(=O)C(=O)c3cccc(C)c32)cc1`, the inhibition came to 7.83%.
The figure for `CCc1ccc(C(=O)c2cn(CC(=O)Nc3cc(OC)cc(OC)c3)c3ccc(CC)cc3c2=O)cc1` is -11.5%; for `CCOc1ccc(CNCCSc2nnnn2C)cc1` it is 9.22%; for `Cc1ccc(-c2nc(CS(=O)(=O)CC(=O)N3CCN(c4ccccc4)CC3)c(C)o2)cc1` it is -2.7%.
The figure for `Cc1cccc(NC(=O)CSc2nc3ccc(NC(=O)CCc4ccccc4)cc3s2)c1` is -2.53%.
The figure for `COc1ccc(CNC(=O)c2cc3c(=O)n(Cc4ccc(OC)cc4)ccc3nc2C)cc1` is 2.23%.
Turning to `COc1cc(Br)cc2cc(S(=O)(=O)c3ccccc3)c(=O)oc12`, the inhibition turned out to be 2.7%.
With `Cc1ccc(-c2noc(-c3cccnc3N(C)Cc3ccc(Cl)cc3)n2)cc1` the figure was 15.8%; with `COc1cccc(NCc2nnc3n2CCCCC3)c1`, 2.31%; with `CCCSCCCNC(=O)c1sc2nc(C)cc(C)c2c1-n1cccc1`, 10.7%.
The figure for `CCOc1ccc(NC(=O)CN(c2ccc(C)cc2)S(=O)(=O)c2cccs2)cc1` is 4.11%.
On to `CCOCCCN(C)C1CCN(C(=O)c2oc3ccccc3c2NC(=O)COc2ccc(F)cc2)CC1`, for which the inhibition is active: 50.4%.
The figure for `CC(=O)NC(=S)Nc1ccccc1C(=O)Nc1ccccc1` is active: 46.7%; for `O=S1(=O)c2ccccc2N(Cc2ccc(F)cc2)c2ccccc21` it is -1.43%; for `COc1ccc(Nc2nnc(-n3nc(C)cc3C)c3ccccc23)cc1` it is 1.31%.
Turning to `O=C(NCCOCCn1c(=O)oc2ccccc21)Nc1ccc(F)cc1F`, the inhibition is -8.68%.
Regarding `COc1ccc(-c2cc(C(=O)Oc3ccc(C#N)cc3)no2)cc1`, the inhibition was -0.584%.
As for `COc1ccc(CNC(=O)C(CC(C)C)NS(=O)(=O)c2ccc3c(c2)CCN3C(C)=O)cc1` (stereo not drawn), the inhibition is -12.4%.
Turning to `Cc1ccc(Cl)cc1N1CCN(C(=O)CCc2nnc3n(C)c(=O)c4ccccc4n23)CC1`, the inhibition was -5.46%.
`COc1ccc(CCN2C(=O)CN(C3CCCCCC3)C(=O)C2c2ccc(Cl)cc2)cc1OC` (stereo not drawn): the inhibition came to 15.8%.
With `CCN(Cc1ccccc1)C(=O)c1cn(-c2cccc(OC)c2)c(=O)c2ccccc12` the figure was -0.163%; with `Cc1ccc(NC(=O)CSc2nc3n[nH]c(C)c3c(=N)n2-c2ccccc2C)cc1C`, -27.7%; with `CCCc1cc(=O)[nH]c(SCC(=O)N2CCN(S(=O)(=O)c3ccc(C)cc3C)CC2)n1`, active: 40.9%.
The figure for `CCCn1c(N)c(C(=O)CSc2nc3ccccc3c(=O)n2-c2ccc(OC)cc2)c(=O)[nH]c1=O` is active: 33.2%; for `O=C(Cn1ncc2c3ccccc3n(Cc3ccccc3)c2c1=O)NCCCN1CCCCC1` it is -2.09%.
Turning to `COc1ccccc1C1C(C(=O)Nc2ccccc2)=C(C)Nc2nc(-c3ccccc3)nn21` (stereo not drawn), the inhibition was 17%.
With `COCCNC(=S)Nc1cc2oc3ccccc3c2cc1OC` the figure was active: 30%; with `c1ccc(-c2ccccc2OCCCCN2CCCCC2)cc1`, active: 74.9%.
The figure for `CC(=O)N1CCc2cc(S(=O)(=O)NC(Cc3ccccc3)C(=O)Nc3cc(C)cc(C)c3)ccc21` (stereo not drawn) is 7.69%; for `CC1CCCCN1CCCNC(=O)Cn1ncc2c3ccccc3n(Cc3ccccc3)c2c1=O` (stereo not drawn) it is 16.4%; for `CCN(CC)S(=O)(=O)c1nnc(NC(=O)c2ccc(C)cc2)s1` it is -21.9%.
With `CC1CN(C(=O)N2CCC(C(=O)NCc3ccco3)CC2)c2ccccc2O1` (stereo not drawn) the figure was 14.3%; with `Cc1ccc2ncc(C(=O)c3ccc(C)c(C)c3)c(S(=O)(=O)c3ccccc3)c2c1`, -6.54%; with `CCOc1cccc(C2c3c(oc4ccc(F)cc4c3=O)C(=O)N2c2cc(C)ccn2)c1` (stereo not drawn), 16%.
On to `CC1CCN(c2nc3ccccc3nc2C(F)(F)F)CC1`, for which the inhibition was -2.53%.
With `Cc1cccc(CN2C(=O)c3ccccc3Sc3ccc(C(=O)NCCCN4CCOCC4)cc32)c1` the figure was 15.8%.
With `O=C(Nc1nc2ccccc2n1CCOc1ccccc1Cl)c1ccccc1` the figure was 17.7%.
With `COc1ccc(CNC(=O)c2cc3oc4ccccc4c3n2C)cc1OC` the figure was -2.92%; with `CCc1ccc(S(=O)(=O)c2nnn3c2nc(N2CCC(C(N)=O)CC2)c2cc(Cl)ccc23)cc1`, 2.53%.
`Cc1c(C(=O)Nc2cccc(C#N)c2)sc2nc3n(c(=O)c12)CCCCC3`: the inhibition is 24%.
On to `COC(=O)c1sc2cccc(F)c2c1S(=O)(=O)Nc1cc(C)c(Cl)cc1OC`, for which the inhibition stood at 8.95%.
The figure for `O=C(COc1ccc(Cl)cc1)Nc1ccc(-c2nc3cc(Cl)ccc3o2)c(O)c1` is -2.12%; for `CCOC(=O)c1cnn(Cc2cccc(Cl)c2)c1C` it is active: 55.8%.
The figure for `CCCNC(=O)C1CCC(Cn2c(=O)c3sccc3n(CC(=O)N3CCCC3)c2=O)CC1` (stereo not drawn) is 15.4%; for `CCc1cccc(C)c1NC(=O)CN1C(=O)c2ccccc2Sc2ncccc21` it is 3.9%.
The figure for `COC(=O)c1ccc(NC(=O)NC(C)c2c(-n3cccc3)sc(C)c2C)cc1` (stereo not drawn) is -19.1%.
For the compound `COc1ccc(Cl)cc1NC(=O)c1sc2nc(-c3ccc(OC)c(OC)c3)ccc2c1N`, the inhibition was -7.54%.
With `O=C(NCc1ccccc1)c1ccc2c(c1)N(Cc1ccc(F)cc1)CCS2` the figure was 8.83%; with `CCC(=O)Nc1ccccc1-c1nc2ccccc2n(CC(=O)Nc2ccc(C)c(C)c2)c1=O`, 15.5%.
The figure for `O=C(N/N=C/c1cccnc1)c1cccc(Cl)c1` is active: 35%; for `Cn1c(=O)c2cc(C(=O)Nc3cccc(C#N)c3)sc2c2ccccc21` it is 12.4%; for `COc1ccc(C2=NN(CC(=O)NCCc3ccccc3)C(=O)CC2)cc1` it is 24.2%.
The figure for `COc1ccc2c(c1)-c1nc(/N=C/c3ccc(O)cc3)sc1CC2` is active: 44.9%.
As to `COc1ccccc1/C=C/CN1CCN(Cc2ccc(C)o2)C(CCO)C1` (stereo not drawn), the inhibition was active: 49.2%.
The figure for `COc1ccc2c(c1)CC(C(=O)Nc1ccc(OC)cc1OC)CO2` (stereo not drawn) is 25.3%.
In the case of `O=S(=O)(c1ccc(OC(F)(F)F)cc1)N1CCC(c2nc3ccccc3s2)CC1`, the inhibition is -24.5%.
